The series has as its system CCRIS mutagenicity, Ames/micronucleus/aberration tests. In words: CCRIS mutagenicity studies.
Where [1] appears, read: End Point: IN VITRO CHROMOSOMAL ABERRATIONS, Test System: CHL CELLS, Metabolic Activation: NONE.
Setting [2] is: Test System: AMES SALMONELLA TYPHIMURIUM, Strain/Indicator: TA1535, Metabolic Activation: HAMSTER, LIVER, S-9, AROCLOR 1254, Method: STANDARD PLATE.
The mark [3] stands for this setting: Test System: AMES SALMONELLA TYPHIMURIUM, Strain/Indicator: TA1535, Metabolic Activation: RAT, LIVER, S-9, AROCLOR 1254, Method: STANDARD PLATE.
The mark [4] stands for this setting: Test System: AMES SALMONELLA TYPHIMURIUM, Strain/Indicator: TA1535, Metabolic Activation: RAT, LIVER, S-9, Method: STANDARD PLATE.
The mark [5] stands for this setting: Test System: E. COLI, Strain/Indicator: WP2 UVRA, Metabolic Activation: HAMSTER, LIVER, S-9, AROCLOR 1254, Method: STANDARD PLATE.
The mark [6] stands for this setting: Test System: E. COLI, Strain/Indicator: WP2 UVRA, Metabolic Activation: MOUSE, LIVER, S-9, AROCLOR 1254, Method: STANDARD PLATE.
[7] abbreviates: Test System: E. COLI, Strain/Indicator: WP2 UVRA, Metabolic Activation: RAT, LIVER, S-9, AROCLOR 1254, Method: STANDARD PLATE.
Setting [8] is: Test System: AMES SALMONELLA TYPHIMURIUM, Strain/Indicator: TA98, Metabolic Activation: NONE, Method: PREINCUBATION

Results on 10 compounds are retold here after PubChem BioAssay AID1259407 (Chemical Carcinogenesis Research Information System (CCRIS), 2018).

Entries after “also recorded” stand apart in the source; their conditions may differ. For part of its entries the source gives two or more results. This list holds those alone. No rule for the calls is given here. The source may hold further records. The values listed for one entry differ, and nothing given here explains why; they may come from other doses, times, organisms or constructs than stated. What stands in brackets tells the records apart. The letters are not those of the source and start again with each entry. Brackets with × give the number of equal values in this list.

As for `Nc1ccc2c(c1)C(=O)c1ccccc1C2=O`, the mutagenic call under setting [1] is “active; positive (structural and ploidy changes); precipitation occurred at 1.2 mg/ml; also recorded: active; positive (structural and ploidy changes)”; the mutagenic call (Test System: AMES SALMONELLA TYPHIMURIUM, Strain/Indicator: TA100, Metabolic Activation: MOUSE, LIVER, S-9, Method: STANDARD PLATE) was “active; positive and inactive; negative”; the mutagenic call (Test System: AMES SALMONELLA TYPHIMURIUM, Strain/Indicator: TA100, Metabolic Activation: RAT, LIVER, S-9, Method: STANDARD PLATE) was “inactive; negative and active; positive”; the mutagenic call under setting [2] is “inactive; negative and active; positive”; the mutagenic call under setting [3] was “active; positive and inactive; negative”; the mutagenic call under setting [4] was “active; positive and inactive; negative”. Further, the mutagenic call by setting is: (Test System: AMES SALMONELLA TYPHIMURIUM, Strain/Indicator: TA1537, Metabolic Activation: NONE, Method: STANDARD PLATE) “inactive; negative and active; positive”; under setting [5], “inactive; negative and active; positive”; under setting [6], “inactive; negative and active; positive”; under setting [7], “inactive; negative and active; positive”.

`Cc1cc([N+](=O)[O-])ccc1N`: the mutagenic call under setting [8] is “active; positive [study A] and inactive; negative [study B]”.

Regarding `BrCC(Br)C1CCC(Br)C(Br)C1` (stereo not given), the mutagenic call (End Point: IN VITRO CHROMOSOMAL ABERRATIONS, Test System: CHL CELLS, Metabolic Activation: S-9) was “inactive; negative; also recorded: active; positive (structural changes); also recorded: active; positive (structural changes); interlaboratory comparison between 2 labs both re” and the mutagenic call (End Point: IN VITRO CHROMOSOMAL ABERRATIONS, Test System: CHO CELLS, Metabolic Activation: S-9) is “inactive; negative (2 independent analyses); also recorded: active; positive (structural changes) (2×)”.

Consider `CC1(C)COC1=O`, for which the mutagenic call was “inactive; negative [0.03 to 33.3 µg/plate] and active; positive [10 to 3333.3 µg/plate]” (Test System: AMES SALMONELLA TYPHIMURIUM, Strain/Indicator: TA100, Metabolic Activation: HAMSTER, LIVER, S-9, AROCLOR 1254, Method: PREINCUBATION); “inactive; negative [0.03 to 33.3 µg/plate] and active; positive [10 to 10000 µg/plate]” (Test System: AMES SALMONELLA TYPHIMURIUM, Strain/Indicator: TA100, Metabolic Activation: HAMSTER, LIVER, S-9, Method: PREINCUBATION); “inactive; negative [0.03 to 33.3 µg/plate] and active; positive [10 to 1000 µg/plate]” (Test System: AMES SALMONELLA TYPHIMURIUM, Strain/Indicator: TA100, Metabolic Activation: MOUSE, LIVER, S-9, AROCLOR 1254, Method: PREINCUBATION); “inactive; negative [0.03 to 33.3 µg/plate] and active; positive [10 to 3333.3 µg/plate]” (Test System: AMES SALMONELLA TYPHIMURIUM, Strain/Indicator: TA100, Metabolic Activation: MOUSE, LIVER, S-9, Method: PREINCUBATION); “inactive; negative [0.03 to 33.3 µg/plate] and active; positive [10 to 1000 µg/plate]” (Test System: AMES SALMONELLA TYPHIMURIUM, Strain/Indicator: TA100, Metabolic Activation: NONE, Method: PREINCUBATION); “inactive; negative [0.03 to 33.3 µg/plate] and active; positive [10 to 1000 µg/plate]” (Test System: AMES SALMONELLA TYPHIMURIUM, Strain/Indicator: TA100, Metabolic Activation: RAT, LIVER, S-9, AROCLOR 1254, Method: PREINCUBATION). The mutagenic call reads like this: (Test System: AMES SALMONELLA TYPHIMURIUM, Strain/Indicator: TA100, Metabolic Activation: RAT, LIVER, S-9, Method: PREINCUBATION) “inactive; negative [0.03 to 33.3 µg/plate] and active; positive [10 to 3333.3 µg/plate]”; under setting [2], “inactive; negative [10 to 6666 µg/plate] and active; positive [33.3 to 10000 µg/plate]”; (Test System: AMES SALMONELLA TYPHIMURIUM, Strain/Indicator: TA1535, Metabolic Activation: HAMSTER, LIVER, S-9, Method: STANDARD PLATE) “inactive; negative [10 to 6666 µg/plate] and active; positive [33.3 to 10000 µg/plate]”; (Test System: AMES SALMONELLA TYPHIMURIUM, Strain/Indicator: TA1535, Metabolic Activation: MOUSE, LIVER, S-9, AROCLOR 1254, Method: STANDARD PLATE) “inactive; negative [10 to 6666 µg/plate] and active; positive [33.3 to 10000 µg/plate]”; (Test System: AMES SALMONELLA TYPHIMURIUM, Strain/Indicator: TA1535, Metabolic Activation: MOUSE, LIVER, S-9, Method: STANDARD PLATE) “inactive; negative [10 to 6666 µg/plate] and active; positive [33.3 to 10000 µg/plate]”; (Test System: AMES SALMONELLA TYPHIMURIUM, Strain/Indicator: TA1535, Metabolic Activation: NONE, Method: STANDARD PLATE) “inactive; negative [10 to 6666 µg/plate] and active; positive [33.3 to 10000 µg/plate]”. In addition, the mutagenic call is, setting by setting: under setting [3], “inactive; negative [10 to 6666 µg/plate] and active; positive [33.3 to 10000 µg/plate]”; under setting [4], “inactive; negative [10 to 6666 µg/plate] and active; positive [33.3 to 10000 µg/plate]”; under setting [5], “active; positive [10 to 6666 µg/plate] and inactive; negative [3.3 to 1000 µg/plate]”; (Test System: E. COLI, Strain/Indicator: WP2 UVRA, Metabolic Activation: HAMSTER, LIVER, S-9, Method: STANDARD PLATE) “active; positive [10 to 6666 µg/plate] and inactive; negative [3.3 to 1000 µg/plate]”; under setting [6], “active; positive [10 to 6666 µg/plate] and inactive; negative [3.3 to 1000 µg/plate]”; (Test System: E. COLI, Strain/Indicator: WP2 UVRA, Metabolic Activation: MOUSE, LIVER, S-9, Method: STANDARD PLATE) “active; positive [10 to 3333.3 µg/plate] and active; positive [10 to 6666 µg/plate] and inactive; negative [3.3 to 1000 µg/plate]”. Moreover, the mutagenic call runs as follows: (Test System: E. COLI, Strain/Indicator: WP2 UVRA, Metabolic Activation: NONE, Method: STANDARD PLATE) “active; positive [10 to 6666 µg/plate] and inactive; negative [3.3 to 1000 µg/plate]”; under setting [7], “active; positive [10 to 6666 µg/plate] and inactive; negative [3.3 to 1000 µg/plate]”; (Test System: E. COLI, Strain/Indicator: WP2 UVRA, Metabolic Activation: RAT, LIVER, S-9, Method: STANDARD PLATE) “active; positive [10 to 6666 µg/plate] and inactive; negative [3.3 to 1000 µg/plate]”.

In the case of `CCOS(=O)(=O)OCC`, under setting [1], the mutagenic call was “active; positive (structural and ploidy changes); also recorded: active; positive (structural changes)”.

Turning to `O=[N+]([O-])CCO`, the mutagenic call was “active; positive and inactive; negative” (Test System: AMES SALMONELLA TYPHIMURIUM, Strain/Indicator: TA98, Metabolic Activation: HAMSTER, LIVER, S-9, AROCLOR 1254 (30%), Method: PREINCUBATION); “active; positive and inactive; negative” under setting [8]; “active; positive and inactive; negative” (Test System: AMES SALMONELLA TYPHIMURIUM, Strain/Indicator: TA98, Metabolic Activation: RAT, LIVER, S-9, AROCLOR 1254 (30%), Method: PREINCUBATION).

With `CC(C)(c1ccc(O)cc1)c1ccc(O)cc1`, the mutagenic call is “active; positive [study A] and inactive; negative [study B]” (End Point: IN VITRO CHROMOSOMAL ABERRATIONS, Test System: CHO CELLS, Metabolic Activation: NONE); “active; positive (structural changes (gaps)); also recorded: active; positive (structural changes)” (End Point: In vivo chromosomal aberrations, Test System: Bone marrow cells, Species: Mouse, Strain/Sex: Swiss/Male, female, Route: Oral).

Turning to `O=P1(N(CCCl)CCCl)NCCCO1` (stereo not given), the mutagenic call is “inactive; negative [study A] and active; positive [study B]” (Test System: AMES SALMONELLA TYPHIMURIUM, Strain/Indicator: TA98, Metabolic Activation: RAT, LIVER, S-9, AROCLOR 1254, Method: STANDARD PLATE); “active; positive [study A] and inactive; negative [study B]” (Test System: AMES SALMONELLA TYPHIMURIUM, Strain/Indicator: TA100, Metabolic Activation: NONE, Method: STANDARD PLATE); “inactive; negative [study A] and active; positive [study B]” (Test System: AMES SALMONELLA TYPHIMURIUM, Strain/Indicator: TA1537, Metabolic Activation: RAT, LIVER, S-9, AROCLOR 1254, Method: STANDARD PLATE).

Regarding `CC1CO1` (stereo not given), the mutagenic call (End Point: IN VITRO CHROMOSOMAL ABERRATIONS, Test System: CHO CELLS, Metabolic Activation: RAT, LIVER, S-9, AROCLOR 1254) is “active; positive; weak response and active; positive”.

Regarding `O=C1OC(O)C(C(Cl)Cl)=C1Cl` (stereo not given), for the setting “Test System: CHINESE HAMSTER OVARY, Strain/Indicator: CHO (NA/K ATPASE)/OUABAIN, Metabolic Activation: NONE”, the mutagenic call is “active; positive [1 to 3 µg/mL] and active; positive [10 to 30 µg/mL] and inactive; negative [10 to 30 µg/mL]”.
